For 22 molecules, binding signal results are on record in paper PMC12136788.

The list shows a part of the results.

Sequences and labels used below:
B1: chr7:13615833:13615834:+_ENSMUSG00000005566_ENSMUST00000005705|mus_mus|motif|central (ssRNA)
RNA: GGGAGUUCUACAGUCCGACGAUCCUUGUUGAACUGUUUGAACAUGCGGCCCACAUCUUGAGCAAACUCCUGGGGGGAGCGGUAAGGAGGUGACAGCUUCUCUUGGAGGCGAGCACGAAUCAAGGUCAGGUCUAGGGUACCACCCAACAGAGGAUUGAGCAUCA
B2: chr1:60041781:60041782:+_ENSMUSG00000041040_ENSMUST00000036540|mus_hu|mus_mus_mus_hu_False|8_28 (ssRNA)
RNA: GGGAGUUCUACAGUCCGACGAUCAAGUUUACAAUAGUAAAGUAAAUGCAGUAGUGGCAAAUUUUCUUUUAUUUUCCUUCACAAAAGAAAAUCUUUAUAACCCAGUCCAAUCCCAGAACAUAGUGAAUCUCCAUGGGUCUGACUCAACAGAGGAUUGAGCAUCA
B3: chr2:9724522:9724523:-_ENSG00000134308_ENST00000238081|hu_hu|FALSE|FALSE (ssRNA)
RNA: GGGAGUUCUACAGUCCGACGAUCGGCUUUUUUGGGACUACAGUCAAUGAUUAGCAACACACAAUAGUGGUCCAACUCUCUAAAUAACAAUCACUAGACAAACUGGACACCCUCUCACAUGUGCACAAAUCUGCAUGGAAAAGUCAACAGAGGAUUGAGCAUCA
B4: chr2:217001844:217001845:+_ENSG00000079246_ENST00000392132|hu_hu|hu_hu_hu_mus_False|1_1 (ssRNA)
RNA: GGGAGUUCUACAGUCCGACGAUCACCAACUUGAGGAUUAGAUCUUUUGUCAUAAGCAUAUCGGACGAUGGCGACCAUGUUUAACUCAUCCAAAGCAUGAACGAGAGAGGAAAGGGCAACAGCUGCCGCCUCAUCAUCUCUUGCCAACAGAGGAUUGAGCAUCA
B5: chr5:121887652:121887653:+_ENSMUSG00000042719_ENSMUST00000042163|mus_mus|FALSE|FALSE (ssRNA)
RNA: GGGAGUUCUACAGUCCGACGAUCGAAGACCAGAUUCUCUAGGACUGCAGGCUGGGUCUUCACAUUGCCAUCUGUAACUUCUAAGAGGUCCCCUUUACAUGUGCUGAAGACACCUUUCAAUAGUUCUAGUAAAGAUGCAAGACUCAACAGAGGAUUGAGCAUCA
B6: chrX:45984076:45984077:+_ENSMUSG00000031105_ENSMUST00000114936|mus_hu|FALSE|FALSE (ssRNA)
RNA: GGGAGUUCUACAGUCCGACGAUCGAAACGGGCAUCAAUGCUUUGGCCUUGAACCUGAAGUCGUGUUUUGGUAAGGUCCACAGGGAAAGUCCCAAACUCAGCCACGAUAGAGGCAAGGCCGCCAUAUACAAAGGGUUUCCAAUUCAACAGAGGAUUGAGCAUCA
B7: chr19:36946997:36946998:+_ENSMUSG00000024811_ENSMUST00000025729|mus_mus|motif|central (ssRNA)
RNA: GGGAGUUCUACAGUCCGACGAUCAUAUUUUCCUUUUGCUGCAGCUUCAUGUAAAGGUGUGAACUUCCACAAGUCAGCGACAUUGACGGCUGCUCCAUGCUUGACAAGAAGUUCUGCAACUUCAUAGUGUCCAUAAGAACAUGCCAACAGAGGAUUGAGCAUCA
B8: chr9:14812383:14812384:-_ENSMUSG00000031934_ENSMUST00000164273|mus_mus|mus_mus_mus_hu_True|1_108 (ssRNA)
RNA: GGGAGUUCUACAGUCCGACGAUCAUAGCUCAAGUAGAUACACGCUAACAGUAUAAUGAUGAGUGUCAGCAGGCGGCAGCUAAUGUACUUGAUGAUUAAAUUAUUAGAAUUUUUCUUUGUCUUCAAGUACUGCUCCACGAUUGGCAACAGAGGAUUGAGCAUCA
B9: chr11:86132931:86132932:-_ENSMUSG00000034297_ENSMUST00000043624|mus_mus|motif|central (ssRNA)
RNA: GGGAGUUCUACAGUCCGACGAUCUCCAAAAGGUCCAACUGGAUCAUCCUUGAAUUUAUCAUUUGGAAGUUGAGGUGGUAAAAAUUCGGCAUCUUUUUUCUUUGGGACUUUGUAAUACUUCCAGGCUACAUUAGCUUCAUCUUCCAACAGAGGAUUGAGCAUCA
B10: 153258998_153268111_1986_CDS_ENSG00000109670_ENST00000281708|human|control|control (ssRNA)
RNA: GGGAGUUCUACAGUCCGACGAUCUAUCACUUGCAUCAUAUGUUUUACUUGUGUUGGUUCACAACUAUCAAUGAGUUCAUCUAAAGCAAGCAAUUUCUCUGGUCCACUCCAGCUCUGAAACAUUUUUAGCCAUUCCUGGAGGCCCAACAGAGGAUUGAGCAUCA
B11: chr16:74336126:74336127:+_ENSG00000103035_ENST00000219313|hu_hu|FALSE|FALSE (ssRNA)
RNA: GGGAGUUCUACAGUCCGACGAUCGACUUCUUCCACUGAAAUGUACGCUUCUGUAGGCAGCCCUAGGUCCUUCGGCUUCACAUCAAUGAUGACCAAUACGGAAUUAGGACAGUAUCUUUUCAUGAGUUCGUUGAUGGCAAUGUCCAACAGAGGAUUGAGCAUCA
B12: chr2:5814250:5814251:-_ENSMUSG00000025816_ENSMUST00000102981|mus_hu|mus_mus_mus_hu_True|68_68 (ssRNA)
RNA: GGGAGUUCUACAGUCCGACGAUCUUCCUUUCCGGUUUCUGAAUUUCUGGUAGAACUGCACAGAAUGGUUUAAUAACUUCUAAAAAUUUGAUGCCCAUGGCUGCUGCUGGGGAGGCCCAGGGGGAAACCGCGGCCUCGGCGCUGCAACAGAGGAUUGAGCAUCA
B13: chr2:198351390:198351391:-_ENSG00000144381_ENST00000345042|hu_hu|hu_hu_hu_mus_False|38_68 (ssRNA)
RNA: GGGAGUUCUACAGUCCGACGAUCUCAUUCCCACCCUCCACAGAAAGGCUGCUUCUGAACUCUCAUGGUGGUGGCAAGCGCUACAGUCCUGAUGCUCACAGAAUAGUAGAGAUGCCUCAGUGAUUUAAGUUGAAAGCAGGACACCAACAGAGGAUUGAGCAUCA
B14: chrX:114868325:114868326:+_ENSG00000102024_ENST00000355899|hu_mus|FALSE|FALSE (ssRNA)
RNA: GGGAGUUCUACAGUCCGACGAUCGGGUGUAAGCUUCUUCUUAUUGAUUGCUCUCUCGUCAAUUGUAUCAGGAACUGAAAGGUUGAUCAUUUUGCAGAGCACGAUCCCAUCACCAACUGCUUUGAACAGGUCAUCAGUAUUUGGCAACAGAGGAUUGAGCAUCA
B15: chr10:70718461:70718462:-_ENSMUSG00000019927_ENSMUST00000020085|mus_hu|motif|central (ssRNA)
RNA: GGGAGUUCUACAGUCCGACGAUCGUAAAAAUCAAAUGGUUUCAUGGUACAAUGAAACAGUAAACAGUGCUCAAUUUACUGCGGAUGUUGAAAAAAACCUAGAUUUUACAGUACUCUGGUAUAUAUGAAAAUGUUUUUGAUUUUCAACAGAGGAUUGAGCAUCA
B16: chr4:148551591:148551592:-_ENSMUSG00000063077_ENSMUST00000060537|mus_hu|mus_mus_mus_hu_False|18_58 (ssRNA)
RNA: GGGAGUUCUACAGUCCGACGAUCACCUGACAAAAUUAAAUAUCCCUGUAAAUUAGACAAUAAGCAGCAGGCAACAAAGUCUAUGCUUUGGAAUAUGUGCCAGGAAAAGUCAUCUUGUAGACCCCAAUCAAGAGACAGUUCACACAACAGAGGAUUGAGCAUCA
B17: 29379763_29386992_1971_3pUTR_ENSG00000159023_ENST00000356093|human|control|control (ssRNA)
RNA: GGGAGUUCUACAGUCCGACGAUCAACAUUAAAUUGCUAUGUCUGAUAUAAAUGUUUUCACCAUCUAGUCUUUCUCUCUUUUUCUUCCAUGCUUCUGUGGGCUCUGGCUCAGCUUGCUCAGGUGGCUCGUCUUCCUUUUUCACUCAACAGAGGAUUGAGCAUCA
B18: chr13:55314627:55314628:+_ENSMUSG00000021488_ENSMUST00000099490|mus_hu|motif|central (ssRNA)
RNA: GGGAGUUCUACAGUCCGACGAUCUACUGGUACUGGAAUCUGGAUCAUCCGAAAGGGCUGUCCUUGUCUUCAGGGGCAUCGGAAUUCACUGGAUUGGAAAAGGGCAGCAGACAAUUUCUUCUGGGUAGUUCACAGGUCUGAUCCCAACAGAGGAUUGAGCAUCA
B19: chr7:151048522:151048523:+_ENSG00000013374_ENST00000566856|hu_mus|hu_hu_hu_mus_True|18_88 (ssRNA)
RNA: GGGAGUUCUACAGUCCGACGAUCCUGUUUCUUAUUUAUUACGAUCUUGAUAUAAUUUUCUUGAAAUCCGAAAGUUUCAGCUAUUUGACACCUCAGGUCUCUACCAGUGACAUGCAAUCGGGUCUCCAACAAGCUUUUCUUAUCCAACAGAGGAUUGAGCAUCA
B20: chr12:111931289:111931290:-_ENSMUSG00000021270_ENSMUST00000094361|mus_mus|FALSE|FALSE (ssRNA)
RNA: GGGAGUUCUACAGUCCGACGAUCGAUAAAAUAGAUGUGCUUCUGGUUUUCCUUCAUUCUGGUACAGUAGUCCUUCAGAGAAACCAUCUCGUCCCCAGAAGCAGAUGUGUAGUACCGCAACAGCUCUGAAAGCUUCUUCCGAUUCAACAGAGGAUUGAGCAUCA
B21: chr11:29606707:29606708:+_ENSMUSG00000020458_ENSMUST00000102843|mus_mus|FALSE|FALSE (ssRNA)
RNA: GGGAGUUCUACAGUCCGACGAUCCAUGGCUGACUCUCCUUUUGGGGAGCCAUUGAAAGAUGAUCCCAUUUCUGAGUAUUCUAAUACUGAAAACUCUGCUGACUCUCUAUUUACAAAUGGAUUUGUUGCCCUCUCUGGCAAUUCCAACAGAGGAUUGAGCAUCA
B22: chr17:48526647:48526648:-_ENSMUSG00000023994_ENSMUST00000046719|mus_mus|FALSE|FALSE (ssRNA)
RNA: GGGAGUUCUACAGUCCGACGAUCCCAAGUGAGCCCCUCUGGCCUCUGUGCCCACGCCGGCAGGGCUGGGAGCCGACUGCAAUGCAGCCAGAGUGGAAACCCAAGCAUCUGCAUCAAAGGAAAGAAAACUCAAACUUGCCUACGCAACAGAGGAUUGAGCAUCA

The target in the test is T1, UNK ZnF1-3 (human, UniProt Q9C0B0 31-174).
T1 sequence: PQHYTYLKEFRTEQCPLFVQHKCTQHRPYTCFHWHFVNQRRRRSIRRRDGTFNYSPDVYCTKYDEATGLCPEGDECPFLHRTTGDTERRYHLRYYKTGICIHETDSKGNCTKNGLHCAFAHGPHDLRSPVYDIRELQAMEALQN
As to the kind of experiment: nsRBNS (natural sequence RNA bind-n-seq); RBNS binding buffer (assumed for nsRBNS): 25 mM Tris pH 7.5, 150 mM KCl, 3 mM MgCl2, 0.01% Triton X-100, 500 ug/ml BSA, 20 U/ml SUPERase-In, 4 C; UNK is unkempt and MSI1 is Musashi-1; names of the RNAs are library labels; protein concentration not given here; high values mean tight binding.
As for B1, the binding signal amounted to 2.35 enrichment R. B2 yielded a binding signal of 0.939 enrichment R. With B3, the binding signal turned out to be 1.51 enrichment R. For the molecule B4, the binding signal amounted to 1.64 enrichment R. As for B5, the binding signal turned out to be 1.12 enrichment R. Molecule B6 came in with a binding signal of 0.706 enrichment R.

B7 displayed a binding signal of 0.712 enrichment R. B8: the binding signal came out at 0.923 enrichment R. B9 gave a binding signal of 0.867 enrichment R. The result for B10 reads 1.01 enrichment R. With B11, the binding signal was 0.879 enrichment R.

On to B12, for which the binding signal was determined as 1.59 enrichment R. Molecule B13 came in with a binding signal of 1.44 enrichment R. Take B14: the binding signal is 0.423 enrichment R. For B15, the binding signal is 0.616 enrichment R. In turn, B16 returned a binding signal of 1.76 enrichment R. The result for B17 reads 0.579 enrichment R. B18 gave a binding signal of 0.941 enrichment R. To B19 belongs 0.861 enrichment R; to B20, 0.528 enrichment R; to B21, 0.848 enrichment R. The result for B22 reads 0.974 enrichment R.
